Test results taken from PMC9130279, “Vanilloid-dependent TRPV1 opening trajectory from cryoEM ensemble analysis” (Nature Communications, 2022).

Molecular target: the molecule itself
Experiment: cryo-EM structure; nanodisc-reconstituted TRPV1 (MSP2N2; POPC:POPE:POPG 3:1:1) with 50 µM RTx, frozen at 4 °C, 25 °C or 48 °C; 20 mM HEPES pH 7.5, 150 mM NaCl; six reconstructions at 3.04-3.45 Å

B1: full-length wild-type Rattus norvegicus (rat) TRPV1 (natural protein)
chain: not shown
notes: TRPV1 (vanilloid receptor 1), rat, full-length wild type, cloned into pEG-BacMam; also called transient receptor vanilloid member 1; vanilloid receptor TRPV1
stoichiometry N: 4
